Results published in patent publication US20170058282A1 (priority 2015, published 2017).

Columns and labels:
[1] = biological target: T1, Lactococcus lactis heme-responsive transcription factor HrtR, SEQ ID NO: 1 (in E. coli MG1655, HrtR+ChuA+PL(HrtO)-luxCDABE) (Lactococcus cremoris, UniProt A2RIY0); test: Hemin response of E. coli MG1655 with HrtR+ChuA+PL(HrtO)-luxCDABE (luminescence); format: cell-based
T1 sequence (A2RIY0 1-189): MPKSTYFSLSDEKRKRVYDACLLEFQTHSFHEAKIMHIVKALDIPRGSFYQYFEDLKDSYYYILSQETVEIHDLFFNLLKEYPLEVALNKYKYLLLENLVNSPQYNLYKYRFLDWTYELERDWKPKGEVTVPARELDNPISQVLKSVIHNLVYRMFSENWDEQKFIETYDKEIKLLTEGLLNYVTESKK

[2] = biological target: T2, Lactococcus lactis heme-responsive transcription factor HrtR, SEQ ID NO: 1 (in E. coli MG1655 gene circuit PL(HrtO)-luxCDABE-hrtR-chuA) (Lactococcus cremoris, UniProt A2RIY0); test: Hemin response of E. coli MG1655 with PL(HrtO)-luxCDABE-hrtR-chuA gene circuits carrying different RBSs for HrtR (luminescence, Hill fit); format: cell-based
T2 sequence (A2RIY0 1-189): T1 sequence (A2RIY0 1-189)

## C=CC1=C(C)c2cc3[nH]c(cc4nc(cc5[nH]c(cc1n2)c(C)c5CCC(=O)O)C(CCC(=O)O)=C4C)c(C)c3C=C.[Fe+2] [heme]
[1]; with ChuA
  response concentration range: sub-micromolar range

## C=CC1=C(C)c2cc3[nH]c(cc4nc(cc5[nH]c(cc1n2)c(C)c5CCC(=O)O)C(CCC(=O)O)=C4C)c(C)c3C=C.[Fe+3] [hemin]
[1]; depending on the concentration of hemin used
  time to detectable differences in luminescence: 30 to 60 min
[2]; HrtR RBS1 (SEQ ID NO: 17)
  Hill coefficient (Hill): 1.9
[2]; HrtR RBS2 (SEQ ID NO: 18)
  Hill coefficient (Hill): 1.7
[2]; HrtR RBS3 (SEQ ID NO: 19)
  Hill coefficient (Hill): 2.7
